Sequences with one replicate were seen in a single cluster, so their values are uncertain.
Each sequence was assayed on ATP (assay: switch fluorescence ratio, 500 uM ATP over buffer (Cy3 cluster intensity, sum of 5 cycles each) (fold (ratio)); higher = stronger signal-on switching upon ATP binding; sequences stand for … in TCGTCGGCAGCGTCAGATGTGTATAAGAGACAGTTTTTTTTTTTTTTTTTTTTTTTTT…TC). Settings: aptamer strand: ATP DNA aptamer (quencher-CACCTGGGGGAGTATTGCGGAGGAAGG + anchor), 100 nM annealed; ATP concentration: 500 uM; one replicate.
Method in brief: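 The quencher-labelled ATP aptamer, at 100 nM, was annealed to Cy3-labelled switching-strand clusters on a modified Illumina MiSeq flow-cell. The clusters were imaged in selection buffer, then after 15 min with 500 uM ATP at 22 °C, and this buffer/ATP cycle ran five times with NaOH stripping and re-annealing between runs. Per-cluster fluorescence ratios, summed target-cycle over summed buffer-cycle Cy3 intensity, were averaged per switch-domain sequence. Clusters outside 100-1000 RFU were excluded.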
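Also: ATP exposure 15 min at 22 °C before imaging.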

Sequence | switch fluorescence ratio
ATCAGGAGG | 0.987
ATCAGGATTA | 0.991
ATCAGGGC | 1.06
ATCAGGTCTT | 1.01
ATCAGTAGGG | 1.03
ATCAGTGGAT | 1
ATCATACATA | 1.03
ATCATCATCT | 1.02
ATCATGTTCT | 0.983
ATCATTTCTT | 1.02
ATCCACTGAA | 1.04
ATCCAGAAAC | 1.04
ATCCAGCCGA | 1.04
ATCCAGCGTC | 1.05
ATCCAGTAGC | 1.03
ATCCAGTTCT | 0.991
ATCCATACTT | 0.996
ATCCCAAAAG | 1.02
ATCCCAGCAG | 1.49
ATCCCAGTA | 1.02
ATCCCATATA | 1.04
ATCCCCGTG | 1.22
ATCCCCTGTG | 1.83
ATCCCGAATT | 0.995
ATCCCGCCTA | 1.07
ATCCCGGTCT | 0.951

Sequence | switch fluorescence ratio
ATCCCGTGCA | 1.01
ATCCCTTACT | 1
ATCCGACTGG | 0.994
ATCCTAAGTA | 0.979
ATCCTCGAAG | 1.01
ATCCTGCTCT | 1
ATCGAATCAT | 0.985
ATCGACGCTC | 3.64
ATCGACTCGT | 1.01
ATCGAGTATT | 1
ATCGAGTGGG | 0.988
ATCGATAAAA | 0.991
ATCGATTCGG | 1.02
ATCGCAAATA | 1.83
ATCGCAGGGA | 1.05
ATCGCATTGT | 1.08
ATCGCGAGCG | 0.994
ATCGCGCGCT | 1.02
ATCGCTGCAT | 1.08
ATCGGATGGT | 1.03
ATCGGCCCGG | 0.979
ATCGGGATTT | 0.912
ATCGGGCGGA | 1.04
ATCGGGGACT | 1.04
ATCGGTACCG | 0.981
ATCGGTGAGT | 0.978

Sequence | switch fluorescence ratio
ATCGGTTCGC | 1.01
ATCGGTTTGT | 1.02
ATCGTAGGGA | 1.02
ATCGTATCGG | 0.965
ATCGTCTATA | 0.978
ATCGTCTTCC | 1.12
ATCGTTATGT | 0.966
ATCGTTCATC | 1.04
ATCGTTCGAG | 0.982
ATCGTTTCTG | 0.949
ATCTACGAAT | 1.09
ATCTAGCTGG | 1.01
ATCTATATGC | 1.03
ATCTATTTGG | 0.992
ATCTCAGGTC | 0.997
ATCTCCAATC | 1.19
ATCTCCGTTT | 1.14
ATCTCCTTCG | 1.49
ATCTCGGA | 0.992
ATCTCGTACA | 1.01
ATCTCTCGGA | 0.967
ATCTCTCGGT | 0.998
ATCTCTGGGA | 1.05
ATCTCTTAAT | 1
ATCTGACAGC | 1.04
ATCTGATAGT | 1.04

Sequence | switch fluorescence ratio
ATCTGCAGGA | 1.02
ATCTGCCCTT | 0.99
ATCTGCCGCT | 1.06
ATCTGCGAGG | 0.991
ATCTGCTCCT | 1
ATCTGGCGG | 1.04
ATCTGGTACC | 1.03
ATCTGGTGGT | 0.939
ATCTGTATTG | 0.957
ATCTTAATTT | 1.01
ATCTTAGAGA | 1
ATCTTCCAGC | 1.16
ATCTTCCTTT | 1.1
ATCTTCGAGA | 1.01
ATCTTGTAGC | 0.992
ATCTTGTCAC | 1.04
ATCTTTAGT | 1.02
ATCTTTGAAC | 1.02
ATCTTTGCCA | 1.33
ATCTTTGTGC | 1.02
ATCTTTTGCG | 1.07
ATCTTTTGGC | 0.983
ATGAAATCGT | 1.04
